In all, about 13,000 compounds were measured (“IFI”: median about 4, highest 2% from about 17 on). The list shows a part of the results.
Assay: GSK_TCMDC: Inhibition Frequency Index (IFI). The number of non-kinase HTS assays where a compound showed > 50 % inhibition, expressed as a percentage of the number of such assays in which the compound was tested (-0 is zero)
Assay type: functional

Which IFI does the source give for `CC(C)CNC(=O)c1cncc(-c2cccc(CNC3Cc4ccccc4C3)c2)c1` here?
The IFI was 7.58%.

For `FC(F)(F)c1ccc(COc2cc(Cl)ccc2Cn2ccnc2)cc1`, which IFI is on record?
The IFI was 8.57%.

Which IFI does the source give for `O=C(N[C@H]1CCN(Cc2ccc(OCCCN3CCCCC3)cc2)C1)c1ccc(Oc2ccccc2)cc1` here?
Its IFI is 7.53%.

With `N=C(N)NN=CC(=O)Nc1ccc(C(F)(F)F)cc1` as the molecule, how does the IFI read?
Its IFI is -0%.

With `O=C(Nc1ccc(-n2ccc(C(F)(F)F)n2)cc1)c1cccs1` as the molecule, how does the IFI read?
The IFI was 1.39%.

With `O=C(NCCc1ccc(F)cc1)c1ccc(N2CCN(c3ccncc3)CC2)nc1` as the molecule, how does the IFI read?
Its IFI is -0%.

For `CCn1c(-c2nonc2N)nc2c(-c3ccccc3)ncc(OCCCNCCCN3CCOCC3)c21`, which IFI is on record?
Its IFI is 3.08%.

For `Cc1ccc(NCC(=O)Nc2ccc(F)c(Cl)c2)cc1S(=O)(=O)N1CCOCC1`, which IFI is on record?
Its IFI is 3.13%.

With `CC(C)n1ncc2c3c(N)nc(N)nc3ccc21` as the molecule, how does the IFI read?
The IFI was 2.22%.

Which IFI does the source give for `Cc1[nH]c(C)c(-c2ccc(CCc3cccc(C(F)(F)F)c3)nc2)c(=O)c1Cl` here?
Its IFI is 8.18%.

Which IFI does the source give for `O=C(Nc1cccc(-c2nn3ccccc3c2-c2ccnc(Nc3cccc(F)c3)n2)c1)C1CCCCC1` here?
The IFI was 2.17%.

For `O=C(Nc1ccccc1)Nc1cccc(-c2nn3c(OCC4CCCCN4)cccc3c2-c2ccncc2)c1` (stereo unspecified), which IFI is on record?
Its IFI is 6.43%.

Which IFI does the source give for `COc1ccc(C(=O)CCC(=O)N(Cc2ccc(-c3ccc(CNCCc4ccc(S(C)(=O)=O)cc4)cn3)cc2)C2CC3CCC2C3)cc1F` (stereo unspecified) here?
Its IFI is 4.93%.

With `COc1ccc2nccc([C@@H](O)CN3CCC(NCCNc4ccccn4)CC3)c2c1` as the molecule, how does the IFI read?
The IFI was 0.75%.

Which IFI does the source give for `O=C(NCCCCCCNCc1ccc(-c2ccccc2)cc1)Nc1ccc(Cl)c(Cl)c1` here?
Its IFI is 5.84%.

Which IFI does the source give for `N#Cc1cccc(CN2CCCN(c3ccc(NC(=O)c4cccs4)cc3)CC2)c1` here?
Its IFI is 5.13%.

For `O=C(Nc1cccc(CN2CCCN(Cc3ccc(O)cc3)CC2)c1)c1cc2ccccc2o1`, which IFI is on record?
The IFI was 0.67%.

Which IFI does the source give for `CC1(C)C(=O)N=C2C1=C(O)C(=O)c1ccccc12` here?
The IFI was 17.2%.

For `Cc1noc(-c2ccccc2)c1CN1CCCC2(CC(C(=O)NCc3cccc(F)c3F)=NO2)C1` (stereo unspecified), which IFI is on record?
Its IFI is 3.54%.

With `COc1ccccc1Nc1nc(C)cc(NCc2ccc(-c3c(C)noc3C)cc2)n1` as the molecule, how does the IFI read?
The IFI was 1.54%.

Which IFI does the source give for `O=C(NCCCCN1CCC(c2ccc([N+](=O)[O-])cc2)CC1)c1ccc(NC(=O)c2ccc(Cl)cc2)cc1` here?
The IFI was 1.5%.

With `CN1CCN(c2ccnc3cc4c(cc23)N(C(=O)Nc2ccc(-c3ccncc3)c3ccccc23)CC4)CC1` as the molecule, how does the IFI read?
The IFI was 3.68%.

With `O=C(Nc1cccc(-c2ccc(-c3nc4cc(C(F)(F)F)ccc4[nH]3)cc2)c1)Nc1ccc(Cl)c(Cl)c1` as the molecule, how does the IFI read?
Its IFI is 5.05%.

With `CS(=O)(=O)Cc1ccc(Nc2nccc(NC3CCN(c4nccc(C(F)(F)F)n4)CC3)n2)cc1` as the molecule, how does the IFI read?
Its IFI is 3.76%.

Which IFI does the source give for `Cc1ccc(NC(=O)c2cnc(N3CCN(c4ccncc4)CC3)c(Cl)c2)cc1` here?
The IFI was 11.9%.

For `Cc1c(Cl)cccc1S(=O)(=O)Nc1ccc(CCN2CCC(N)CC2)cc1`, which IFI is on record?
The IFI was 9.84%.

With `Oc1ccc(CN2CCC(NCc3cccc4ccccc34)CC2)cc1` as the molecule, how does the IFI read?
Its IFI is 3.33%.

For `CCOc1ccc2nc(C)cc(N/N=C/c3ccccc3[N+](=O)[O-])c2c1`, which IFI is on record?
The IFI was 8.51%.

Which IFI does the source give for `CCc1ccc(O)c(-c2cc(C(=O)Nc3ccc(OC)c(Cl)c3)[nH]n2)c1` here?
The IFI was 1.64%.

For `CC(=O)c1ccccc1OCCSc1nnc(Cc2cccs2)n1C1CCCCC1`, which IFI is on record?
The IFI was 4.8%.

Which IFI does the source give for `O=C(Nc1ccccc1-c1ccccc1)C1CCCN1C(=O)Nc1ccc(Cl)cc1` (stereo unspecified) here?
Its IFI is 1.39%.

For `CN1CCN(CCCN(Cc2ccc(-c3ccc(CNCc4ccc5c(c4)OCO5)cc3)cc2)C(=O)CCC2CCCC2)CC1`, which IFI is on record?
The IFI was 6.8%.

With `COc1ccc2nccc(N3CCC(CCNCc4cc5c(cn4)OCCO5)CC3)c2c1` as the molecule, how does the IFI read?
Its IFI is 3.6%.

With `COc1ccccc1CNC(=O)CCn1c(=O)[nH]c2ccsc2c1=O` as the molecule, how does the IFI read?
Its IFI is -0%.

Which IFI does the source give for `CCOCc1cnc(C)nc1NCC(=O)c1c(C)[nH]c2cc(C)ccc12` here?
Its IFI is 1.53%.

Which IFI does the source give for `O=C(Cc1ccc([N+](=O)[O-])cc1)N1CCc2cc3nccc(N4CCN5CCC[C@@H]5C4)c3cc21` here?
Its IFI is 1.5%.

Which IFI does the source give for `CCOC(=O)c1nc(-c2cc(Cl)nc(Cl)c2)[nH]c1NC(=S)NCCCN1CCOCC1` here?
Its IFI is 3.91%.

For `O=C(Nc1ccc(-c2nc3ccccc3[nH]2)cc1)c1ccc(S(=O)(=O)N2CCCCC2)cc1`, which IFI is on record?
The IFI was 0.71%.

For `Cc1ccc(C(C(=O)Nc2ccc(N3CCNCC3)c(Cl)c2)c2ccccc2)cc1` (stereo unspecified), which IFI is on record?
The IFI was 18.6%.

With `CC1CC1C(=O)NC1CCN(CC2(c3ccccc3)CCCCC2)CC1` (stereo unspecified) as the molecule, how does the IFI read?
Its IFI is 6.38%.

With `COc1cc(CNCCCNc2cc(=O)c3ccccc3[nH]2)c2c(c1)C(C)CN2C(=O)OC(C)(C)C` (stereo unspecified) as the molecule, how does the IFI read?
Its IFI is 4.93%.

Which IFI does the source give for `O=C(NCCCCCN1CCC(c2c[nH]c3ccccc23)C1)Nc1ccc(Cl)c(Cl)c1` (stereo unspecified) here?
The IFI was 4.32%.

Which IFI does the source give for `Cc1cc(N(C)C2CCN(CC3CCCCC3)C2)nc(Nc2ccc(Cl)cc2)n1` (stereo unspecified) here?
The IFI was 6.58%.

With `COc1ccc2ncc(F)c(CCN3CCC(NCc4cc(C)c5c(c4)OCCO5)CC3)c2n1` as the molecule, how does the IFI read?
Its IFI is 3.85%.

For `COc1ccc2ncc(F)c([C@@H](O)CN3CCC(NCc4cc(C#N)c5c(c4)CCO5)CC3)c2n1`, which IFI is on record?
The IFI was 2.97%.

With `O=C(C=Cc1ccc(Cl)c(Cl)c1)NCCCCCN1CCC(CCNC(=O)c2sc3ccccc3c2Cl)CC1` as the molecule, how does the IFI read?
Its IFI is 4.93%.

Reference: ChEMBL document CHEMBL1157539, “Thousands of chemical starting points for antimalarial lead identification” (Nature, 2010)
